Values belong to the binder of their own block, whether it stands above or below them.
Biological target: β-Klotho overexpressed in recombinant human 293T kidney cells
Assay: cell-based or functional assay

- EC50 (nM), ELK-luciferase: 2.5 nM
- Efficacy, ELK-luciferase: 76.1%
B1: Fc-(L15)-FGF21 (L98R, P171G) (Fc fusion)
chain: [skipping human IgG1 Fc]GGGGGSGGGSGGGGSHPIPDSSPLLQFGGQVRQRYLYTDDAQQTEAHLEIREDGTVGGAADQSPESLLQLKALKPGVIQILGVKTSRFLCQRPDGALYGSLHFDPEACSFRERLLEDGYNVYQSEAHGLPLHLPGNKSPHRDPAPRGPARFLPLPGLPPAPPEPPGILAPQPPDVGSSDPLSMVGGSQGRSPSYAS

- EC50 (nM), ELK-luciferase: 3.25 nM
- Efficacy, ELK-luciferase: 76.9%
B2: Fc-(L15)-FGF21 (L98R, P171G, A180G) (Fc fusion)
chain: [skipping human IgG1 Fc]GGGGGSGGGSGGGGSHPIPDSSPLLQFGGQVRQRYLYTDDAQQTEAHLEIREDGTVGGAADQSPESLLQLKALKPGVIQILGVKTSRFLCQRPDGALYGSLHFDPEACSFRERLLEDGYNVYQSEAHGLPLHLPGNKSPHRDPAPRGPARFLPLPGLPPAPPEPPGILAPQPPDVGSSDPLSMVGGSQGRSPSYGS

- EC50 (nM), ELK-luciferase: 1.9 nM
- Efficacy, ELK-luciferase: 79.6%
B3: Fc-(L15)-FGF21 (L98R, P171G, A180E) (Fc fusion)
chain: [skipping human IgG1 Fc]GGGGGSGGGSGGGGSHPIPDSSPLLQFGGQVRQRYLYTDDAQQTEAHLEIREDGTVGGAADQSPESLLQLKALKPGVIQILGVKTSRFLCQRPDGALYGSLHFDPEACSFRERLLEDGYNVYQSEAHGLPLHLPGNKSPHRDPAPRGPARFLPLPGLPPAPPEPPGILAPQPPDVGSSDPLSMVGGSQGRSPSYES

- EC50 (nM), ELK-luciferase: 25.3 nM
- Efficacy, ELK-luciferase: 74.8%
B4: Fc-(L15)-FGF21 (L98R, P171G, Y179S) (Fc fusion)
chain: [skipping human IgG1 Fc]GGGGGSGGGSGGGGSHPIPDSSPLLQFGGQVRQRYLYTDDAQQTEAHLEIREDGTVGGAADQSPESLLQLKALKPGVIQILGVKTSRFLCQRPDGALYGSLHFDPEACSFRERLLEDGYNVYQSEAHGLPLHLPGNKSPHRDPAPRGPARFLPLPGLPPAPPEPPGILAPQPPDVGSSDPLSMVGGSQGRSPSSAS

- EC50 (nM), ELK-luciferase: 2.6 nM
- Efficacy, ELK-luciferase: 78.3%
B5: Fc-(L15)-FGF21 (L98R, P171G, Y179F) (Fc fusion)
chain: [skipping human IgG1 Fc]GGGGGSGGGSGGGGSHPIPDSSPLLQFGGQVRQRYLYTDDAQQTEAHLEIREDGTVGGAADQSPESLLQLKALKPGVIQILGVKTSRFLCQRPDGALYGSLHFDPEACSFRERLLEDGYNVYQSEAHGLPLHLPGNKSPHRDPAPRGPARFLPLPGLPPAPPEPPGILAPQPPDVGSSDPLSMVGGSQGRSPSFAS

- EC50 (nM), ELK-luciferase: 2.18 nM
- Efficacy, ELK-luciferase: 84.7%
B6: Fc-(L15)-FGF21 (L98R, P171G, A180S) (Fc fusion)
chain: [skipping human IgG1 Fc]GGGGGSGGGSGGGGSHPIPDSSPLLQFGGQVRQRYLYTDDAQQTEAHLEIREDGTVGGAADQSPESLLQLKALKPGVIQILGVKTSRFLCQRPDGALYGSLHFDPEACSFRERLLEDGYNVYQSEAHGLPLHLPGNKSPHRDPAPRGPARFLPLPGLPPAPPEPPGILAPQPPDVGSSDPLSMVGGSQGRSPSYSS

- EC50 (nM), ELK-luciferase: 43.2 nM
- Efficacy, ELK-luciferase: 79.6%
B7: Fc-(L15)-FGF21 (L98R, P171G, Y179A) (Fc fusion)
chain: [skipping human IgG1 Fc]GGGGGSGGGSGGGGSHPIPDSSPLLQFGGQVRQRYLYTDDAQQTEAHLEIREDGTVGGAADQSPESLLQLKALKPGVIQILGVKTSRFLCQRPDGALYGSLHFDPEACSFRERLLEDGYNVYQSEAHGLPLHLPGNKSPHRDPAPRGPARFLPLPGLPPAPPEPPGILAPQPPDVGSSDPLSMVGGSQGRSPSAAS

- EC50 (nM), ELK-luciferase: 1940 nM
- Efficacy, ELK-luciferase: 84.2%
B8: Fc-(L15)-FGF21 (L98R, P171G, 182G, 183G) (Fc fusion)
chain: [skipping human IgG1 Fc]GGGGGSGGGSGGGGSHPIPDSSPLLQFGGQVRQRYLYTDDAQQTEAHLEIREDGTVGGAADQSPESLLQLKALKPGVIQILGVKTSRFLCQRPDGALYGSLHFDPEACSFRERLLEDGYNVYQSEAHGLPLHLPGNKSPHRDPAPRGPARFLPLPGLPPAPPEPPGILAPQPPDVGSSDPLSMVGGSQGRSPSYASGG

- EC50 (nM), ELK-luciferase: 6.1 nM
- Efficacy, ELK-luciferase: 85.9%
B9: Fc-(L15)-FGF21 (L98R, P171G, 182P) (Fc fusion)
chain: [skipping human IgG1 Fc]GGGGGSGGGSGGGGSHPIPDSSPLLQFGGQVRQRYLYTDDAQQTEAHLEIREDGTVGGAADQSPESLLQLKALKPGVIQILGVKTSRFLCQRPDGALYGSLHFDPEACSFRERLLEDGYNVYQSEAHGLPLHLPGNKSPHRDPAPRGPARFLPLPGLPPAPPEPPGILAPQPPDVGSSDPLSMVGGSQGRSPSYASP

- EC50 (nM), ELK-luciferase: 6.5 nM
- Efficacy, ELK-luciferase: 71.1%
B10: Fc-(L15)-FGF21 (L98R, P171G, 182G) (Fc fusion)
chain: [skipping human IgG1 Fc]GGGGGSGGGSGGGGSHPIPDSSPLLQFGGQVRQRYLYTDDAQQTEAHLEIREDGTVGGAADQSPESLLQLKALKPGVIQILGVKTSRFLCQRPDGALYGSLHFDPEACSFRERLLEDGYNVYQSEAHGLPLHLPGNKSPHRDPAPRGPARFLPLPGLPPAPPEPPGILAPQPPDVGSSDPLSMVGGSQGRSPSYASG
